According to patent US6514692B2, “Method for treatment of immunodeficiency virus infection” (priority 1996, dated 2003):
Values joined by “and” are separate entries in the source; they are usually repeats but may differ in a detail not shown here. Equal entries are not always repeated. Where two headings read alike, the source gives them in different places. Part of at least one peptide drawing is inferred or uncertain, most often the ends. Where no end group is shown, it is not given here.

Key:
SK1 isolate of HIV-1 = settings: for p24 VALUES, single samples: samples 1-3; for effect on p24, an indicator of virus level: at concentrations well below those toxic to normal, un-infected cells; for IC50 (inhibition of cell-cell transmission): linear regression
Text: ME180 cells, a cervical epithelial cell line, were obtained from the American Type Culture Collection. These cells were thawed from liquid nitrogen and grown in RPMI 1640 medium supplemented with 10t fetal bovine serum, glutamine and antibiotics. The cells were adherent and were trypsinized (0.5% trypsin in HBSS) to remove them from the flask for passaging and use in assays. For use in the microtiter transmission inhibition assay, ME180 cells were trypsinized, washed and seeded in 96-well flat bottom microtiter plates (COSTAR) at a density of 5×10^3 cells per well. The cells were incubated at 37° C. for 24 hours prior to the tart of the assay. H9 cells chronically infected with he SK1 isolate of HIV-1 were treated with 200 μg/ml mitomycin C for 60 minutes at 37° C. After treatment the cells were washed three times with tissue culture medium. The chronically infected lymphocytes were added to each well at a density of 2×10^4 cells per well. The concentration of mitomycin C used in the treatment of the lymphocytes was chosen to allow lymphocyte survival for the period of time required to transmit virus to the uninfected ME180 cells, but to die prior to the time of assay so as not to contribute to the p24 signal used as the endpoint (see below). In the transmission assay the lytic peptides D4E1 and D2A21, with and without 150 μg/ml pig mucin, were added prior to the addition of chronically infected cells or were mixed with the chronically infected cells prior to their addition to the monolayer of ME180 cells. Mucin was included because it is an abundant constituent of the normal vaginal secretions of a human being, thus any chemotherapeutic agent targeting HIV should be active in its presence if it is to have clinical value. […] The lymphocytes and peptide were co-cultured with the ME180 cells for 6 hours and then removed by washing the ME180 monolayer four times with PBS. The plate was then incubated at 37° C. for six days. Medium was removed and changed every 48 hours during the incubation stage. No further peptide was added after the initial dose. At six days post-co-cultivation, the supernatant was removed from the wells and evaluated for the quantity of p24 antigen by ELISA. The ELISA was performed according to the manufacturer's recommendations. The amount of virus production in wells treated with various concentrations of the peptides was evaluated with appropriate cell and virus controls. Data are reported as a percent of virus control at each drug concentration. Linear regression analysis was used to calculate the […] and IC95 concentrations of the transmission inhibitor. […] TI represents the toxicity index, which is the ratio of the TC50/IC50, and is an indication of the relative concentrations window that exists between efficacy and toxicity.

FIV-Petaluma [1] = assay: TCID50 assay of day 7 supernatants (virus infectivity); format: cell-based
FIV-Petaluma [2] = assay: time course of p26 level in supernatants of FIV-Petaluma chronically infected CrFK cells (ELISA); format: cell-based; settings: for p26 level, % of Positive Controls: second experiment; for p26 level, % pos. CTL / p26 level, % suppressing / p26 level (OD), D4E1 +: single 2 μM treatment, first experiment
[3] = 0.32 μg/ml, with 150 μg/ml pig mucin
[4] = 1 μg/ml, with 150 μg/ml pig mucin
[5] = 3.2 μg/ml, with 150 μg/ml pig mucin
[6] = 10 μg/ml, with 150 μg/ml pig mucin
[7] = 32 μg/ml, with 150 μg/ml pig mucin
[8] = 100 μg/ml, with 150 μg/ml pig mucin

FAKKFAKKFKKFAKKFAKFAFAF [D2A21]
p24 VALUES, MEAN (SK1 isolate of HIV-1; 0.32 μg/ml, no mucin): 45.3 µg/mL
p24 VALUES, single samples (SK1 isolate of HIV-1; 0.32 μg/ml, no mucin): 40.1 µg/mL and 47.9 µg/mL and 48.0 µg/mL
p24 VALUES, MEAN (SK1 isolate of HIV-1; [3]): 20.1 µg/mL
p24 VALUES, single samples (SK1 isolate of HIV-1; [3]): 20.1 µg/mL and 21.0 µg/mL and 19.1 µg/mL
p24 VALUES, MEAN (SK1 isolate of HIV-1; 1 μg/ml, no mucin): 37.3 µg/mL
p24 VALUES, single samples (SK1 isolate of HIV-1; 1 μg/ml, no mucin): 38.0 µg/mL and 41.2 µg/mL and 32.6 µg/mL
p24 VALUES, MEAN (SK1 isolate of HIV-1; [4]): 16.5 µg/mL
p24 VALUES, single samples (SK1 isolate of HIV-1; [4]): 20.2 µg/mL and 11.7 µg/mL and 17.6 µg/mL
p24 VALUES, MEAN (SK1 isolate of HIV-1; 3.2 μg/ml, no mucin): 22.5 µg/mL
p24 VALUES, single samples (SK1 isolate of HIV-1; 3.2 μg/ml, no mucin): 22.6 µg/mL and 20.7 µg/mL and 24.2 µg/mL
p24 VALUES, MEAN (SK1 isolate of HIV-1; [5]): 11.2 µg/mL
p24 VALUES, single samples (SK1 isolate of HIV-1; [5]): 12.2 µg/mL and 12.0 µg/mL and 9.4 µg/mL
p24 VALUES, MEAN (SK1 isolate of HIV-1; 10 μg/ml, no mucin): 15.2 µg/mL
p24 VALUES, single samples (SK1 isolate of HIV-1; 10 μg/ml, no mucin): 14.1 µg/mL and 19.5 µg/mL and 11.9 µg/mL
p24 VALUES, MEAN (SK1 isolate of HIV-1; [6]): 6.0 µg/mL
p24 VALUES, MEAN (SK1 isolate of HIV-1; 32 μg/ml, no mucin): 1.2 µg/mL
p24 VALUES, MEAN (SK1 isolate of HIV-1; [7]): 0.0 µg/mL
p24 VALUES, single samples (SK1 isolate of HIV-1; [7]): 0.0 µg/mL
p24 VALUES, MEAN (SK1 isolate of HIV-1; 100 μg/ml, no mucin): 0.0 µg/mL
p24 VALUES, single samples (SK1 isolate of HIV-1; 100 μg/ml, no mucin): 0.0 µg/mL
% VC (p24, percent of virus control) (SK1 isolate of HIV-1; [8]): 0.0%
p24 VALUES, MEAN (SK1 isolate of HIV-1; [8]): 0.0 µg/mL
p24 VALUES, single samples (SK1 isolate of HIV-1; [8]): 0.0 µg/mL
effect on p24, an indicator of virus level (SK1 isolate of HIV-1): significant decrease in p24
IC50 (inhibition of cell-cell transmission) (SK1 isolate of HIV-1; no mucin): IC50 = 0.26 μg/ml
IC50 (inhibition of cell-cell transmission) (SK1 isolate of HIV-1; with 150 μg/ml pig mucin): IC50 = 02.6 μg/ml

FKLRAKIKVRLRAKIKL [D4E1]
TCID50 lower than supernatant from untreated cultures (FIV-Petaluma [1]; day 7 supernatant, first experiment): ~2 log
TCID50 of Day 7 Supernatants, # virus, D4E1 + (FIV-Petaluma [1]; first experiment, 2 μM D4E1): 3
TCID50 of Day 7 Supernatants, # virus, D4E1 + (FIV-Petaluma [1]; second experiment, concentration not given): 240
p26 level, % of Positive Controls (FIV-Petaluma [2]; 0.5 μM, D0): 100%
p26 level, % of Positive Controls (FIV-Petaluma [2]; 0.5 μM, D1): 57%
p26 level, % of Positive Controls (FIV-Petaluma [2]; 0.5 μM, D3): 100%
p26 level, % of Positive Controls (FIV-Petaluma [2]; 0.5 μM, D5): 100%
p26 level, % of Positive Controls (FIV-Petaluma [2]; 0.5 μM, D7): 100%
p26 level, % of Positive Controls (FIV-Petaluma [2]; 0.5 μM, D12): 100%
p26 level, % of Positive Controls (FIV-Petaluma [2]; 2 μM, D0): 100%
p26 level, % of Positive Controls (FIV-Petaluma [2]; 2 μM, D1): 69%
p26 level, % of Positive Controls (FIV-Petaluma [2]; 2 μM, D3): 79%
p26 level, % of Positive Controls (FIV-Petaluma [2]; 2 μM, D5): 100%
p26 level, % of Positive Controls (FIV-Petaluma [2]; 2 μM, D7): 92%
p26 level, % of Positive Controls (FIV-Petaluma [2]; 2 μM, D12): 95%
p26 level, % pos. CTL (FIV-Petaluma [2]; D0): 100%
p26 level, % suppressing (FIV-Petaluma [2]; D0): 0%
p26 level (OD), D4E1 + (FIV-Petaluma [2]; D1): 541.5 OD
p26 level, % pos. CTL (FIV-Petaluma [2]; D1): 57%
p26 level, % suppressing (FIV-Petaluma [2]; D1): 43%
p26 level (OD), D4E1 + (FIV-Petaluma [2]; D3): 1830.5 OD
p26 level, % pos. CTL (FIV-Petaluma [2]; D3): 13%
p26 level, % suppressing (FIV-Petaluma [2]; D3): 27%
p26 level (OD), D4E1 + (FIV-Petaluma [2]; D5): 3412.5 OD
p26 level, % pos. CTL (FIV-Petaluma [2]; D5): 106%
p26 level, % suppressing (FIV-Petaluma [2]; D5): −6%
p26 level (OD), D4E1 + (FIV-Petaluma [2]; D7): 3515.5 OD
p26 level, % pos. CTL (FIV-Petaluma [2]; D7): 104%
p26 level, % suppressing (FIV-Petaluma [2]; D7): −4%
p24 VALUES, MEAN (SK1 isolate of HIV-1; 0.32 μg/ml, no mucin): 25.9 µg/mL
p24 VALUES, single samples (SK1 isolate of HIV-1; 0.32 μg/ml, no mucin): 21.6 µg/mL and 29.1 µg/mL and 26.9 µg/mL
p24 VALUES, MEAN (SK1 isolate of HIV-1; [3]): 20.9 µg/mL
p24 VALUES, single samples (SK1 isolate of HIV-1; [3]): 27.0 µg/mL and 15.5 µg/mL and 20.2 µg/mL
p24 VALUES, MEAN (SK1 isolate of HIV-1; 1 μg/ml, no mucin): 24.5 µg/mL
p24 VALUES, single samples (SK1 isolate of HIV-1; 1 μg/ml, no mucin): 25.9 µg/mL and 28.5 µg/mL and 19.2 µg/mL
p24 VALUES, MEAN (SK1 isolate of HIV-1; [4]): 13.6 µg/mL
p24 VALUES, single samples (SK1 isolate of HIV-1; [4]): 14.1 µg/mL and 11.8 µg/mL and 14.8 µg/mL
p24 VALUES, MEAN (SK1 isolate of HIV-1; 3.2 μg/ml, no mucin): 21.5 µg/mL
p24 VALUES, single samples (SK1 isolate of HIV-1; 3.2 μg/ml, no mucin): 27.5 µg/mL and 19.2 µg/mL and 17.9 µg/mL
p24 VALUES, MEAN (SK1 isolate of HIV-1; [5]): 4.9 µg/mL
p24 VALUES, MEAN (SK1 isolate of HIV-1; 10 μg/ml, no mucin): 4.7 µg/mL
p24 VALUES, MEAN (SK1 isolate of HIV-1; [6]): 1.8 µg/mL
p24 VALUES, MEAN (SK1 isolate of HIV-1; 32 μg/ml, no mucin): 1.9 µg/mL
p24 VALUES, MEAN (SK1 isolate of HIV-1; [7]): 3.1 µg/mL
p24 VALUES, MEAN (SK1 isolate of HIV-1; 100 μg/ml, no mucin): 0.0 µg/mL
p24 VALUES, single samples (SK1 isolate of HIV-1; 100 μg/ml, no mucin): 0.0 µg/mL
% VC (p24, percent of virus control) (SK1 isolate of HIV-1; [8]): 0.0%
p24 VALUES, MEAN (SK1 isolate of HIV-1; [8]): 0.0 µg/mL
p24 VALUES, single samples (SK1 isolate of HIV-1; [8]): 0.0 µg/mL
effect on p24, an indicator of virus level (SK1 isolate of HIV-1): significant decrease in p24
IC50 (inhibition of cell-cell transmission) (SK1 isolate of HIV-1; no mucin): IC50 = 0.31 μg/ml
IC50 (inhibition of cell-cell transmission) (SK1 isolate of HIV-1; with 150 μg/ml pig mucin): IC50 = 0.29 μg/ml
